Results taken from patent US20240425574A1, “ANTI-PDGF-B ANTIBODIES AND PHARMACEUTICAL COMPOSITION THEREOF” (Regeneron Pharmaceuticals, Inc., priority 2021, published 2024).

What was measured:
human PDGF-BB = human PDGF-BB (Homo sapiens, UniProt P01127); conditions: all 1 nM PDGF treatments; anti-PDGF-B antibodies at 60 seconds
Description: Upon reaching 100% confluency in the well, PDGF driven calcium flux was assessed via the FLIPR® Calcium 5 Assay Kit (Molecular Devices, Cat #R8185) on the FLIPR Tetra System (Molecular Devices) following the manufacturer's protocol. Briefly, complete media was replaced with 50 μL assay media (DMEM-0.1% BSA-1× Penicillin/Streptomycin/L-Glutamine). The Calcium 5 dye was then reconstituted in the supplied buffer in the presence of probenecid (Thermofisher, Cat #P36400). […] A 1 nM concentration of PDGF-AB, PDGF-BB and the combination treatment PDGF-AB/BB was chosen as a constant to assess antibody inhibition. […] Antibodies were pre-incubated with PDGF proteins for 30-minutes before addition onto the cells via the FLIPR tetra system. Calcium flux traces were assessed at both 60 seconds and over the full-time course of 5 minutes. These calcium traces were analyzed for their Max-Min values using the SoftMax Pro Software (Molecular Devices).

hypoxia/sugen PAH mice = assay: Hypoxia/Sugen PAH mice, therapeutic treatment (Study 1); format: in vivo, mouse
Description: For the first study, 14 to 16 weeks old male humanized PDGFRβ^hu-hu mice, (MAID #1639) were used. Mice were separated into treatment groups by weight such that starting body weights were similar among different groups. […] Mice in hypoxia chamber were given VEGF receptor inhibitor Sugen5146 at 20 mg/kg subcutaneously once a week for 6 weeks. The mice were administered antibodies starting on day 21 for 3 weeks as outlined in Table 11. […] Mice were anesthetized with isoflurane and were kept at approximately 37° C. using a heated platform (Heated Hard Pad 1, Braintree Scientific) and circulating heated water pump (T/Pump Classic, Gaymar Industries). The neck area for each mouse was prepared for surgery by depilating over the right common Carotid artery and right Jugular vein. An incision was made, and the right Jugular vein was isolated with care as to not damage the Carotid artery and/or the Vagus nerve. A piece of 5-0 silk suture was placed under the isolated Jugular vein to allow for retraction of the vessel cranially, then a 30-gauge needle was used to introduce a hole into the Jugular vein. A pressure catheter (Micro-tip catheter transducer SPR-1000, Millar Instruments, Inc.) was inserted into the opening of the Jugular vein and advanced past the right atrium into the right ventricle. The catheter was connected to pressure/volume instrument (MPVS-300, Millar Instruments, Inc.) that measured heart rate as well as both diastolic and systolic right ventricular pressures. These parameters were digitally acquired using a data acquisition system (PowerLab 4/35, AD Instruments). LabChart […].0 software (AD Instruments) was used to analyze right ventricular pressures. […] The parameters analyzed were right ventricular systolic pressures (RVSP), heart rate (HR) and rate of right ventricular pressure rise (dP/dt max). After the in vivo hemodynamic measurements, animals were euthanized by exsanguinations under anesthesia and then RV free wall, left ventricle (LV) and septum tissue were harvested and weighted. RV hypertrophy was calculated by Fulton index as the weight ratio of RV and (LV+septum). Then, RV tissue was saved frozen (-80° C.) for biochemical analyses. Hematocrit was obtained for each mouse immediately after euthanasia.

rat PDGF-BB = rat PDGF-BB (Rattus norvegicus, UniProt Q05028); assay: Biacore T200/MASS-2 binding kinetics at 25° C. (Example 14)
Description: The equilibrium dissociation constant (KD) for PDGF-BB binding to different PDGF-BB monoclonal antibodies (mAbs) was determined using a real-time surface plasmon resonance biosensor using a Biacore T200 or MASS-2 instrument. All binding studies were performed in 10 mM HEPES, 300 mM NaCl, and 0.05% v/v Surfactant Tween-20, pH 7.4 (HBS-P) running buffer at 25° C. The sensor chip surface was first derivatized by amine coupling with human Fc specific mouse mAb (REGN2567) to capture different PDGF-BB mAbs. […] At the end of each cycle, the PDGF-BB mAb captured surface was regenerated using a 10-12 seconds injection of 20 mM phosphoric acid.
The association rate (ka) and dissociation rate (kd) were determined by fitting the real-time binding sensorgrams to a 1:1 binding model with mass transport limitation using Scrubber 2.0c curve-fitting software. Binding dissociation equilibrium constant (KD) and dissociative half-life (t½) were calculated from the kinetic rates as: […]

monocrotaline rats = assay: 4 weeks Monocrotaline PAH rats, preventive treatment (Example 10 study 1); format: in vivo, rat
Description: Six to seven weeks old male Sprague Dawley rats were used. Rats were separated into treatment groups such that body weights were similar among different groups. […] Standard of care group was orally administered macitentan at 30 mg/kg daily for 28 days. At day one, rats were subcutaneously administered either 40 mg/kg of monocrotaline or 5 mL/kg of saline. By the end of day 28, right ventricular systolic pressure (RVSP) was measured by right heart catheterization and RV hypertrophy was calculated by Fulton index as the weight ratio of RV and (LV+septum). In study 2, rats were subcutaneously administered either 60 mg/kg of monocrotaline or 5 mL/kg of saline. […] Body weight change from day 0-35 were used for general toxicity assessment and animal mortality was calculated by day 35.
Rats were anesthetized with isoflurane and were kept at approximately 37° C. using a heated platform (Heated Hard Pad 1, Braintree Scientific) and circulating heated water pump (T/Pump Classic, Gaymar Industries). The neck area for each rat was prepared for surgery by depilating over the right common Carotid artery and right Jugular vein. An incision was made and the right Jugular vein was isolated with care as to not damage the Carotid artery and/or the Vagus nerve. […] The catheter was connected to pressure/volume instrument (MPVS-300, Millar Instruments, Inc.) that measured heart rate as well as both diastolic and systolic right ventricular pressures. […] Readings were quantified from a 60 second interval of the pressure tracing (following a 2 minute period of recording to allow for pressure stabilization). The parameters analyzed were right ventricular systolic pressures (RVSP), heart rate (HR) and rate of right ventricular pressure rise (dP/dt max).
After the in vivo hemodynamic measurements, animals were euthanized by exsanguinations under anesthesia and then RV free wall, left ventricle (LV) and septum tissue were harvested and weighted. RV hypertrophy was calculated by Fulton index as the weight ratio of RV and (LV+septum). […]

[1] = Hypoxia/Sugen Mice - Therapeutic, dose mg/kg: H4H13145P 25, Macitentan 30, REGN2176 25
[2] = Monocrotaline Rat - Prevention, dose mg/kg: H4H13145P 25, Macitentan 30, Sotatercept 25

rat PDGF-BB, sequence (Q05028 74-182 limits assumed): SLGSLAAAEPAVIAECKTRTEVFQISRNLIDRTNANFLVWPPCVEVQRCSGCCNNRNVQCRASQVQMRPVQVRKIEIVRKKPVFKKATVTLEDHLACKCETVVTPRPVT
human PDGF-BB, sequence (P01127 82-190 limits assumed): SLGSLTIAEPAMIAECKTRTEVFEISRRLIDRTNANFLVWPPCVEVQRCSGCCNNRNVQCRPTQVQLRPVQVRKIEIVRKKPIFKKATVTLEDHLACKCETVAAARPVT

B1: H4H13145P: fully human anti-PDGF-B mAb, human IgG4 Fc; HCVR/LCVR SEQ ID NOs: 2/10, HC/LC 18/20 (antibody)
heavy: QVQLVQSGTEVKKPGASVKVSCKASGYTYGAYAISWVRQAPGQGLEWMGWISAYNGNTNYAQKFQDRVTMTTDTSTNTAYMELRGLKSDDTAVYFCARAWNSFDYWGQGTLVTVSSASTKGPSVFPLAPCSRSTSESTAALGCLVKDYFPEPVTVSWNSGALTSGVHTFPAVLQSSGLYSLSSVVTVPSSSLGTKTYTCNVDHKPSNTKVDKRV[human IgG4 Fc with S228P (EU numbers) left out here]
light: DIQMTQSPSSLSASVGDRVTITCQASQDIRKNLNWYQQKPGKAPKLLISDASTLETGVPSRFSGSGSGTDFTFTISSLQPEDIAKYYCQQYYNLPFTFGPGTKVDIKRTVAAPSVFIFPPSDEQLKSGTASVVCLLNNFYPREAKVQWKVDNALQSGNSQESVTEQDSKDSTYSLSSTLTLSKADYEKHKVYACEVTHQGLSSPVTKSFNRGEC
inhibition of PDGF mediated calcium flux in words (human PDGF-BB): complete inhibition | body weight loss caused by hypoxia (hypoxia/sugen PAH mice; 25 mg/kg SC 2x/week from day 21, versus isotype control, day 42): significantly attenuated | reduction of right ventricular systolic pressure elevation (hypoxia/sugen PAH mice; 25 mg/kg SC 2x/week from day 21, week 6, versus isotype control): 9 mmHg | % reduction in RV hypertrophy (hypoxia/sugen PAH mice; [1]): 35% | Reduction in RVSP (hypoxia/sugen PAH mice; [1]): 9 mmHg | 15 nM rPDGF-BB Bound (RU) (rat PDGF-BB; 15 nM rPDGF-BB over captured mAb): 35.3 RU | ka (rat PDGF-BB; rat PDGF-BB): 2.25e+06 M⁻¹ s⁻¹ | kd (rat PDGF-BB; rat PDGF-BB): 0.000282 s⁻¹ | % reduction in RV hypertrophy (monocrotaline rats; [2]): 50-60% | Reduction in RVSP (monocrotaline rats; [2]): 14 mmHg | right ventricular systolic pressure elevation (monocrotaline rats; monocrotaline 40 mg/kg, antibody 25 mg/kg SC 2x/week, Macitentan 30 mg/kg P.O. daily, week 4): significantly reduced
